Measurements published in the supplement of paper PMC10037445.
Over roughly 2,900 compounds, “NF-kB SEAP reporter activity, fold change vs agonist alone” has its median near 0.99; the highest 2% begin near 2.6. This is one part of the list.

Columns and labels:
RAW-Dual [1] = test: NF-kB SEAP reporter activity, fold change vs agonist alone; cytotoxicity flag (confluency mask): not cytotoxic; higher = enhanced NF-kB activity
Outline: (§1)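 After 50 nL of library stock was delivered by pin tool to RAW-Dual macrophages (50,000 cells/well, DMEM, 384-well plates), a PRR agonist was added 1 h later and the plates were kept at 37 °C, 5% CO2. Twenty hours later, IRF was read from supernatant by QuantiLuc luminescence and NF-κB by QuantiBlue absorbance at 620 nm. Reporter activity is stated as fold change over agonist-alone wells. Wells with IncuCyte confluency under 70% of agonist controls in both mask sets were counted as cytotoxic.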

RAW-Dual [2] = test: NF-kB SEAP reporter activity, fold change vs agonist alone; higher = enhanced NF-kB activity; conditions: library stock concentration (final ~1000-fold dilution): 10 mM
Outline: as §1

RAW-Dual [3] = test: NF-kB SEAP reporter activity, fold change vs agonist alone; cytotoxicity flag (confluency mask): cytotoxic (confluency <70% of control); higher = enhanced NF-kB activity
Outline: as §1

[4] = agonist: ODN 1826 (TLR9) 0.5 ug/mL
[5] = agonist: Pam2CSK4 (TLR2/6) 0.1 ug/mL
[6] = agonist: Pam3CSK4 (TLR2/1) 0.1 ug/mL
[7] = cytotoxicity flag (confluency mask): not cytotoxic, agonist: Imiquimod (TLR7) […]
[8] = cytotoxicity flag (confluency mask): not cytotoxic, agonist: MPLA (TLR4) […]

SMILES: O=C(C=Cn1cnc(-c2cc(C(F)(F)F)cc(C(F)(F)F)c2)n1)N1CC(F)(F)C1 (library stock concentration (final ~1000-fold dilution): 10 mM)
- NF-kB SEAP reporter activity (RAW-Dual [1]; agonist: LPS (TLR4) 0.1 ug/mL): 0.368
- NF-kB SEAP reporter activity (RAW-Dual [1]; [4]): 0.741
- NF-kB SEAP reporter activity (RAW-Dual [1]; [5]): 0.632
- NF-kB SEAP reporter activity (RAW-Dual [1]; [6]): 0.492

SMILES: O=C(C=Cn1cnc(-c2cc(C(F)(F)F)cc(C(F)(F)F)c2)n1)N1CC(F)(F)C1
- NF-kB SEAP reporter activity (RAW-Dual [2]; [7]): 1.17
- NF-kB SEAP reporter activity (RAW-Dual [2]; [8]): 0.953

SMILES: CCn1c(=O)c(-c2ccc(-c3cncs3)cc2Cl)cc2cnc(Nc3ccc(N4CCN(C)CC4)cc3)nc21 (library stock concentration (final ~1000-fold dilution): 10 mM)
- NF-kB SEAP reporter activity (RAW-Dual [1]; agonist: LPS (TLR4) 0.1 ug/mL): 1.62
- NF-kB SEAP reporter activity (RAW-Dual [1]; [4]): 1.39
- NF-kB SEAP reporter activity (RAW-Dual [1]; [5]): 0.8
- NF-kB SEAP reporter activity (RAW-Dual [1]; [6]): 1.34

SMILES: CCn1c(=O)c(-c2ccc(-c3cncs3)cc2Cl)cc2cnc(Nc3ccc(N4CCN(C)CC4)cc3)nc21
- NF-kB SEAP reporter activity (RAW-Dual [2]; [7]): 0.522
- NF-kB SEAP reporter activity (RAW-Dual [2]; [8]): 1.72

SMILES: CC[N+](CC)(CC)CC
- NF-kB SEAP reporter activity (RAW-Dual [2]; [7]): 0.949
- NF-kB SEAP reporter activity (RAW-Dual [2]; [8]): 1.05

SMILES: CC[N+](CC)(CC)CC (library stock concentration (final ~1000-fold dilution): 10 mM)
- NF-kB SEAP reporter activity (RAW-Dual [1]; agonist: LPS (TLR4) 0.1 ug/mL): 0.917
- NF-kB SEAP reporter activity (RAW-Dual [1]; [4]): 1
- NF-kB SEAP reporter activity (RAW-Dual [1]; [5]): 1.1
- NF-kB SEAP reporter activity (RAW-Dual [1]; [6]): 1.03

SMILES: Br.Br.NCCCCCNCC12CC3CC(CC(C3)C1)C2
- NF-kB SEAP reporter activity (RAW-Dual [2]; [7]): 1.09
- NF-kB SEAP reporter activity (RAW-Dual [2]; [8]): 1.15

SMILES: Br.Br.NCCCCCNCC12CC3CC(CC(C3)C1)C2 (library stock concentration (final ~1000-fold dilution): 10 mM)
- NF-kB SEAP reporter activity (RAW-Dual [1]; agonist: LPS (TLR4) 0.1 ug/mL): 1.18
- NF-kB SEAP reporter activity (RAW-Dual [1]; [4]): 0.944
- NF-kB SEAP reporter activity (RAW-Dual [1]; [5]): 0.83
- NF-kB SEAP reporter activity (RAW-Dual [1]; [6]): 1.01

SMILES: CN1CCN(CCCNc2ncc(Cl)c(-c3cc4c(C(=O)NC5CC5)cccc4s3)n2)CC1 (library stock concentration (final ~1000-fold dilution): 10 mM)
- NF-kB SEAP reporter activity (RAW-Dual [3]; agonist: LPS (TLR4) 0.1 ug/mL): 0.309
- NF-kB SEAP reporter activity (RAW-Dual [3]; [4]): 0.195
- NF-kB SEAP reporter activity (RAW-Dual [3]; [5]): 0.0714
- NF-kB SEAP reporter activity (RAW-Dual [3]; [6]): 0.165

SMILES: CN1CCN(CCCNc2ncc(Cl)c(-c3cc4c(C(=O)NC5CC5)cccc4s3)n2)CC1
- NF-kB SEAP reporter activity (RAW-Dual [2]; cytotoxicity flag (confluency mask): cytotoxic (confluency <70% of control), agonist: Imiquimod (TLR7) […]): 0.205
- NF-kB SEAP reporter activity (RAW-Dual [2]; cytotoxicity flag (confluency mask): cytotoxic (confluency <70% of control), agonist: MPLA (TLR4) […]): 0.309

SMILES: Cl.OC(CCCN1CCCCC1)(c1ccccc1)c1ccccc1
- NF-kB SEAP reporter activity (RAW-Dual [2]; [7]): 0.99
- NF-kB SEAP reporter activity (RAW-Dual [2]; [8]): 1.03

SMILES: Cl.OC(CCCN1CCCCC1)(c1ccccc1)c1ccccc1 (library stock concentration (final ~1000-fold dilution): 10 mM)
- NF-kB SEAP reporter activity (RAW-Dual [1]; agonist: LPS (TLR4) 0.1 ug/mL): 0.99
- NF-kB SEAP reporter activity (RAW-Dual [1]; [4]): 0.832
- NF-kB SEAP reporter activity (RAW-Dual [1]; [5]): 1
- NF-kB SEAP reporter activity (RAW-Dual [1]; [6]): 0.992

SMILES: CCN(CC)Cc1cc(Nc2ccnc3cc(Cl)ccc23)ccc1O.Cl.Cl.O.O
- NF-kB SEAP reporter activity (RAW-Dual [2]; [7]): 0.244
- NF-kB SEAP reporter activity (RAW-Dual [2]; [8]): 0.82

SMILES: CCN(CC)Cc1cc(Nc2ccnc3cc(Cl)ccc23)ccc1O.Cl.Cl.O.O (library stock concentration (final ~1000-fold dilution): 10 mM)
- NF-kB SEAP reporter activity (RAW-Dual [1]; agonist: LPS (TLR4) 0.1 ug/mL): 0.419
- NF-kB SEAP reporter activity (RAW-Dual [1]; [4]): 0.184
- NF-kB SEAP reporter activity (RAW-Dual [1]; [5]): 0.719
- NF-kB SEAP reporter activity (RAW-Dual [1]; [6]): 0.633

SMILES: CCC(c1ccc(O)cc1)C(CC)c1ccc(O)cc1 (stereo not drawn)
- NF-kB SEAP reporter activity (RAW-Dual [2]; [7]): 1.28
- NF-kB SEAP reporter activity (RAW-Dual [2]; [8]): 1.24

SMILES: CCC(c1ccc(O)cc1)C(CC)c1ccc(O)cc1 (stereo not drawn) (library stock concentration (final ~1000-fold dilution): 10 mM)
- NF-kB SEAP reporter activity (RAW-Dual [1]; agonist: LPS (TLR4) 0.1 ug/mL): 1.36
- NF-kB SEAP reporter activity (RAW-Dual [1]; [4]): 0.712
- NF-kB SEAP reporter activity (RAW-Dual [1]; [5]): 0.842
- NF-kB SEAP reporter activity (RAW-Dual [1]; [6]): 0.989
